Assay [1] concerns the target T1, human CD47 (human, UniProt Q08722).
T1 construct: whole, on cells; also called hCD47; leukocyte surface antigen CD47
Briefly: flow cytometry (FACS) on CHOK1-hCD47 cells. As for the experimental part:
(§1) The binding ability of the antigen-binding protein to CHOK1-hCD47 cells (GenScript, M00581) highly expressing human CD47 was determined by flow cytometry FACS. Specifically, the cells were digested and resuspended in a DMEM complete medium, and the cell density was adjusted to 1×10⁶ cells/mL. The cells were seeded in a 96-well V-bottom plate (Corning, #3894) at 100 µL/well, followed by the addition of test binding proteins diluted in a 3-fold gradient at a concentration that was 2 times the final concentration, each at 100 μL/well. The cells were incubated at 4° C. for 1 h away from light. Thereafter, the cells in each well were rinsed twice with 100 μL of pre-cooled PBS, and centrifuged at 500 g at 4° C. for 5 min, and then the supernatant was discarded. Thereafter, a fluorescent secondary antibody (Alexa Fluor 488-conjugated AffiniPure Goat Anti-Human IgG, Fcγ Fragment Specific, Jackson ImmunoResearch Inc., #109-545-098, diluted in a 1:500 ratio) was added at 100 μL/well, and the plate was incubated at 4° C. for 30 min away from light. The cells in each well were then rinsed twice with 100 μL of pre-cooled PBS and centrifuged at 500 g at 4° C. for 5 min, and then the supernatant was discarded. […] Fluorescence signal values were read using a BD FACS CANTOII flow cytometer, and the data were processed and analyzed using FlowJo v10 (FlowJo, LLC) software.
(A flow cytometer gives signals particle by particle.)

The target of assay [2] is T2, human ROR1 (human, UniProt Q01973 30-937).
T2 construct: whole, on cells; also called NTRKR1
Description: flow cytometry (FACS) on PanC-1 cells highly expressing human ROR1. As for the experimental part:
as §1, with “tumor” for “CHOK1-hCD47”, “PanC-1 (ATCC, CRL-1469)” for “(GenScript, M00581)”, “ROR1” for “CD47”, “μL/well,” for “µL/well,”

T1 sequence (Q08722 19-323): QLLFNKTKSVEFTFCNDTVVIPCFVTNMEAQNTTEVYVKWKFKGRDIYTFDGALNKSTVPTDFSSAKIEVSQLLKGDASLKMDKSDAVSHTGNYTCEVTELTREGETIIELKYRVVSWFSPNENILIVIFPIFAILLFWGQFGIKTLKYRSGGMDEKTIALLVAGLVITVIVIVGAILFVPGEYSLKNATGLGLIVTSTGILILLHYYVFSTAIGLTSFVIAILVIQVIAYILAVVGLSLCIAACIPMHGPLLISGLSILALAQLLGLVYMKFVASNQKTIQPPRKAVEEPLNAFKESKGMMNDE
Sequence of human ROR1 (Q01973 30-937): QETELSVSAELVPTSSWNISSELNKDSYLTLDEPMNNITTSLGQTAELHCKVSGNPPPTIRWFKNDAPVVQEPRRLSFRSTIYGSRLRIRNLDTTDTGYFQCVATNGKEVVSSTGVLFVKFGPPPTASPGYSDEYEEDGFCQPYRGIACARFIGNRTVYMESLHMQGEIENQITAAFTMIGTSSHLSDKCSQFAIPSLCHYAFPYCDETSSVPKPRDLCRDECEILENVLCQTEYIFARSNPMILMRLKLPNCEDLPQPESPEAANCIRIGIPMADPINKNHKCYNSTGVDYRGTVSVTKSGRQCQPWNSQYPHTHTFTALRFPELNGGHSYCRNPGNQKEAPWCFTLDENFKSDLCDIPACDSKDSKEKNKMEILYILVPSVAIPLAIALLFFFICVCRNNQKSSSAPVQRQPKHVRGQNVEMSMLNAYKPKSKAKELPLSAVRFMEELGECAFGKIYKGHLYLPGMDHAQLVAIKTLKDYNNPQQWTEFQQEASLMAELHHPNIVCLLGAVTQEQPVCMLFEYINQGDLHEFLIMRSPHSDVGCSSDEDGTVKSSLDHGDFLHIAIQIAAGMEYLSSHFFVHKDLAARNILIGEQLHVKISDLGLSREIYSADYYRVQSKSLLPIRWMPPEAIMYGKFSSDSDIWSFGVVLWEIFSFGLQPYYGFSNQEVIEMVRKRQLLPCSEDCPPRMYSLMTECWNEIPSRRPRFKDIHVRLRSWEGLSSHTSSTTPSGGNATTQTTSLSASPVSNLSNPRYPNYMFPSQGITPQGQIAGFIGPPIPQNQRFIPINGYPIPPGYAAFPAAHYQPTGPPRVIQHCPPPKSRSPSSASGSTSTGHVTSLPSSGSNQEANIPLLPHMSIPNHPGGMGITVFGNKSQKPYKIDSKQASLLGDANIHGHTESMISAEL

B1: SIRPa-Fc fusion protein PR006345 (Fc fusion)
chain: EEELQIIQPDKSVLVAAGETATLRCTITSLFPVGPIQWFRGAGPGRVLIYNQRQGPFPRVTTVSDTTKRNNMDFSIRIGNITPADAGTYYCIKFRKGSPDDVEFKSGAGTELSVRAKPSGGGAS[not shown - human IgG1 Fc]
notes: also called ALX148 (clone No.)
Consider B1, for which the binding result in assay [1] is “binds”.

B2: PR006345-ADC (Fc fusion)
chain: B1 chain
modifications: mc-vc-PAB-MMAE coupled to Cys-220 (Eu numbering; 92.45% of the site coupled)
notes: Coupling product of PR006345 with mc-vc-PAB-MMAE, without HIC purification; DAR=2 component 89% by LC-MS; also called coupling product PR006345-ADC
Turning to B2, the binding result in assay [1] is recorded as “binds”.

B3: scFv-Fc PR002129 (Fc fusion)
chain: QVQLVQSGGGVVQPGRSLRLSCAASGFTFSSYGMHWVRQAPGKGLEWVAVIWYDGSNKDYADSVKGRFTISRDTSKNTLYLQMNSLRAEDTAVYYCAREQARSFDLWGRGTLVTVSSGGGGSGGGGSGGGGSDIQLTQSPYSLSASVGDRVTITCRASQTINNWLAWYQQKPGKAPKLLIYKASSLESGVPSRFSGSGSGTEFTLTISSLQPDDFATYYCQQYKLYSPMYTFGQGTKVEIKGGGAS[not shown - human IgG1 Fc]
notes: also called 1015M2-H4
For the molecule B3, the binding result in assay [2] is “binds”.

B4: PR002129-ADC (Fc fusion)
chain: B3 chain
modifications: mc-vc-PAB-MMAE coupled to Cys-220 (Eu numbering; 88% of the site coupled)
notes: Coupling product of scFv-Fc PR002129 with mc-vc-PAB-MMAE, main component DAR=2; also called coupling product PR002129-ADC
For the molecule B4, the binding result in assay [2] was “binds”.

These data come from patent US20240050583A1 (HARBOUR BIOMED SHANGHAI, published 2024).
